Experimental data as given in the supplement of paper PMC4967469.

Columns and labels:
Assay in all cases: Viability of human cancer cell lines after 72 h of drug (GDSC screen)
[1] = compound: Oc1ccc2ccccc2c1SSc1c(O)ccc2ccccc12 [IPA-3]; details: top dose 32 µM; top dose inferred
Experimental: (§1)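 Human cancer cell lines in 384-well plates, medium with 10% serum, drug for 72 h over a 256-fold dose range (nine 2-fold or five 4-fold steps up to the top dose). Adherent lines were fixed and stained with the nucleic acid dye Syto60, suspension lines read with resazurin; signal relative to control wells, capped at 0 and 100%. One two-parameter sigmoid per drug and line, fitted in a mixed model over all curves with the slope shared within a line.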

[2] = compound: CN1CCc2c(c3ccccc3n2Cc2ccc(C(=O)NO)cc2)C1 [Tubastatin A]; details: top dose 20 µM
Experimental: as §1

[3] = compound: O=C(NOCC1CC1)c1ccc(F)c(F)c1Nc1ccc(I)cc1Cl [CI-1040]; details: top dose 10 µM; top dose inferred
Experimental: as §1

[4] = compound: CN(C)C/C=C/C(=O)Nc1ccc(C(=O)Nc2cccc(Nc3nccc(-c4cccnc4)n3)c2)cc1 [ZG-10]; details: top dose 10 µM; top dose inferred
Experimental: as §1

[5] = compound: COc1cc2c(Oc3ccc(NC(=O)C4(C(=O)Nc5ccc(F)cc5)CC4)cc3F)ccnc2cc1OCCCN1CCOCC1 [XL-880]; details: top dose 5.12 µM; top dose inferred
Experimental: as §1

[6] = compound: Cn1nnc2c(C(N)=O)ncn2c1=O [Temozolomide]; details: top dose 30 µM
Experimental: as §1

AU565 (breast, adherent)
AUC [1]: 0.79
IC50 [1]: 16 µM
AUC [2]: 0.962
IC50 [2]: > 20 µM
AUC [3]: 0.911
IC50 [3]: > 10 µM
AUC [4]: 0.726
IC50 [4]: 2.97 µM
AUC [5]: 0.864
IC50 [5]: > 5.12 µM

NCI-H630 (large intestine, adherent)
AUC [2]: 0.966
IC50 [2]: > 20 µM
AUC [3]: 0.883
IC50 [3]: > 10 µM
AUC [4]: 0.957
IC50 [4]: > 10 µM
AUC [6]: 0.987
IC50 [6]: > 30 µM
AUC [5]: 0.819
IC50 [5]: 3.18 µM

D-423MG (glioma, adherent)
AUC [2]: 0.981
IC50 [2]: > 20 µM
AUC [3]: 0.705
IC50 [3]: 2.72 µM
AUC [4]: 0.724
IC50 [4]: 3.16 µM
AUC [6]: 0.865
IC50 [6]: > 30 µM
AUC [5]: 0.6
IC50 [5]: 0.639 µM

NCI-H460 (large cell lung carcinoma, adherent)
AUC [1]: 0.987
IC50 [1]: > 32 µM
AUC [2]: 0.99
IC50 [2]: > 20 µM
AUC [3]: 0.648
IC50 [3]: 1.54 µM
AUC [4]: 0.985
IC50 [4]: > 10 µM

OVCA420 (ovary, adherent)
AUC [2]: 0.718
IC50 [2]: 6.46 µM
AUC [3]: 0.855
IC50 [3]: > 10 µM
AUC [4]: 0.968
IC50 [4]: > 10 µM
AUC [6]: 0.927
IC50 [6]: > 30 µM
AUC [5]: 0.745
IC50 [5]: 2.09 µM

FADU (head and neck, adherent)
AUC [1]: 0.978
IC50 [1]: > 32 µM
AUC [2]: 0.987
IC50 [2]: > 20 µM
AUC [3]: 0.77
IC50 [3]: 3.66 µM
AUC [4]: 0.437
IC50 [4]: 0.424 µM
AUC [5]: 0.813
IC50 [5]: 2.65 µM

KMRC-20 (kidney, adherent)
AUC [2]: 0.986
IC50 [2]: > 20 µM
AUC [3]: 0.849
IC50 [3]: 7.68 µM
AUC [4]: 0.9
IC50 [4]: > 10 µM
AUC [6]: 0.987
IC50 [6]: > 30 µM
AUC [5]: 0.78
IC50 [5]: 2.14 µM

OV-17R (ovary, adherent)
AUC [2]: 0.903
IC50 [2]: > 20 µM
AUC [3]: 0.952
IC50 [3]: > 10 µM
AUC [4]: 0.941
IC50 [4]: > 10 µM
AUC [6]: 0.97
IC50 [6]: > 30 µM
AUC [5]: 0.632
IC50 [5]: 0.856 µM

RCC-JF (kidney, adherent)
AUC [2]: 0.948
IC50 [2]: > 20 µM
AUC [3]: 0.625
IC50 [3]: 1.45 µM
AUC [4]: 0.694
IC50 [4]: 2.37 µM
AUC [6]: 0.94
IC50 [6]: > 30 µM
AUC [5]: 0.638
IC50 [5]: 0.813 µM

RCC-FG2 (kidney, adherent)
AUC [2]: 0.975
IC50 [2]: > 20 µM
AUC [3]: 0.867
IC50 [3]: > 10 µM
AUC [4]: 0.801
IC50 [4]: 6.53 µM
AUC [6]: 0.975
IC50 [6]: > 30 µM
AUC [5]: 0.618
IC50 [5]: 0.74 µM

SNU-407 (large intestine, adherent)
AUC [2]: 0.978
IC50 [2]: > 20 µM
AUC [3]: 0.726
IC50 [3]: 3.1 µM
AUC [4]: 0.72
IC50 [4]: 2.94 µM
AUC [6]: 0.975
IC50 [6]: > 30 µM
AUC [5]: 0.61
IC50 [5]: 0.678 µM

RCC-ER (kidney, adherent)
AUC [2]: 0.982
IC50 [2]: > 20 µM
AUC [3]: 0.845
IC50 [3]: 8.53 µM
AUC [4]: 0.75
IC50 [4]: 3.62 µM
AUC [6]: 0.984
IC50 [6]: > 30 µM
AUC [5]: 0.768
IC50 [5]: 2.14 µM

OV-7 (ovary, adherent)
AUC [2]: 0.951
IC50 [2]: > 20 µM
AUC [3]: 0.735
IC50 [3]: 4.24 µM
AUC [4]: 0.77
IC50 [4]: 5.94 µM
AUC [6]: 0.919
IC50 [6]: > 30 µM
AUC [5]: 0.541
IC50 [5]: 0.437 µM

PFSK-1 (medulloblastoma, adherent)
AUC [1]: 0.974
IC50 [1]: > 32 µM
AUC [2]: 0.96
IC50 [2]: > 20 µM
AUC [3]: 0.931
IC50 [3]: > 10 µM
AUC [4]: 0.552
IC50 [4]: 0.876 µM
AUC [5]: 0.731
IC50 [5]: 1.53 µM

RCC-JW (kidney, adherent)
AUC [2]: 0.979
IC50 [2]: > 20 µM
AUC [3]: 0.89
IC50 [3]: > 10 µM
AUC [4]: 0.663
IC50 [4]: 1.79 µM
AUC [6]: 0.984
IC50 [6]: > 30 µM
AUC [5]: 0.685
IC50 [5]: 1.07 µM

UWB1.289 (ovary, adherent)
AUC [2]: 0.949
IC50 [2]: > 20 µM
AUC [3]: 0.91
IC50 [3]: > 10 µM
AUC [4]: 0.755
IC50 [4]: 5.08 µM
AUC [6]: 0.977
IC50 [6]: > 30 µM
AUC [5]: 0.683
IC50 [5]: 1.36 µM

OC-314 (ovary, adherent)
AUC [2]: 0.989
IC50 [2]: > 20 µM
AUC [3]: 0.952
IC50 [3]: > 10 µM
AUC [4]: 0.558
IC50 [4]: 0.88 µM
AUC [6]: 0.988
IC50 [6]: > 30 µM
AUC [5]: 0.763
IC50 [5]: 1.61 µM

QGP-1 (pancreas, adherent)
AUC [2]: 0.848
IC50 [2]: > 20 µM
AUC [3]: 0.932
IC50 [3]: > 10 µM
AUC [4]: 0.829
IC50 [4]: > 10 µM
AUC [6]: 0.977
IC50 [6]: > 30 µM
AUC [5]: 0.642
IC50 [5]: 1.01 µM

OVK-18 (ovary, adherent)
AUC [2]: 0.98
IC50 [2]: > 20 µM
AUC [3]: 0.651
IC50 [3]: 1.72 µM
AUC [4]: 0.754
IC50 [4]: 3.69 µM
AUC [6]: 0.977
IC50 [6]: > 30 µM
AUC [5]: 0.864
IC50 [5]: > 5.12 µM

HCC2998 (large intestine, adherent)
AUC [1]: 0.893
IC50 [1]: > 32 µM
AUC [2]: 0.981
IC50 [2]: > 20 µM
AUC [3]: 0.6
IC50 [3]: 1.17 µM
AUC [4]: 0.602
IC50 [4]: 1.18 µM
AUC [5]: 0.845
IC50 [5]: 3.56 µM

EMC-BAC-1 (lung adenocarcinoma, adherent)
AUC [2]: 0.942
IC50 [2]: > 20 µM
AUC [3]: 0.855
IC50 [3]: 9.74 µM
AUC [4]: 0.657
IC50 [4]: 1.82 µM
AUC [6]: 0.981
IC50 [6]: > 30 µM
AUC [5]: 0.521
IC50 [5]: 0.369 µM

CAPAN-1 (pancreas, adherent)
AUC [1]: 0.973
IC50 [1]: > 32 µM
AUC [2]: 0.985
IC50 [2]: > 20 µM
AUC [3]: 0.827
IC50 [3]: 7.06 µM
AUC [4]: 0.896
IC50 [4]: > 10 µM
AUC [5]: 0.737
IC50 [5]: 1.66 µM

YH-13 (glioma, adherent)
AUC [2]: 0.985
IC50 [2]: > 20 µM
AUC [3]: 0.881
IC50 [3]: > 10 µM
AUC [4]: 0.68
IC50 [4]: 2.05 µM
AUC [6]: 0.985
IC50 [6]: > 30 µM
AUC [5]: 0.507
IC50 [5]: 0.334 µM

KYSE-140 (oesophagus, adherent)
AUC [1]: 0.766
IC50 [1]: 13.3 µM
AUC [2]: 0.983
IC50 [2]: > 20 µM
AUC [3]: 0.892
IC50 [3]: > 10 µM
AUC [4]: 0.712
IC50 [4]: 2.71 µM
AUC [5]: 0.631
IC50 [5]: 0.774 µM

OACp4C (oesophagus, adherent)
AUC [2]: 0.884
IC50 [2]: > 20 µM
AUC [3]: 0.802
IC50 [3]: 6.12 µM
AUC [4]: 0.775
IC50 [4]: 4.79 µM
AUC [6]: 0.965
IC50 [6]: > 30 µM
AUC [5]: 0.505
IC50 [5]: 0.331 µM

KYAE-1 (oesophagus, suspension)
AUC [2]: 0.944
IC50 [2]: > 20 µM
AUC [3]: 0.804
IC50 [3]: 5.63 µM
AUC [4]: 0.845
IC50 [4]: 8.41 µM
AUC [6]: 0.967
IC50 [6]: > 30 µM
AUC [5]: 0.65
IC50 [5]: 0.874 µM

A lower IC50 marks a more sensitive line; a fit beyond the top or the lowest dose is shown as a bound at that dose. AUC sums up the same curve from the lowest dose to the 256-fold higher top dose; it is 1 without any effect and falls as sensitivity rises. For part of these data: Where the top dose is marked as inferred, it comes from the curve model; the source does not state it.
